The other results are listed elsewhere or left out. The full chains were built here from the parent and the listed change. Values near 0.05 are background.
B1: TEV protease; numbered along this chain (parent)
chain: MGESLFKGPRDYNPISSSICHLTNESDGHTTSLYGIGFGPFIITNKHLFRRNNGTLVVQSLHGVFKVKDTTTLQQHLVDGRDMIIIRMPKDFPPFPQKLKFREPQREERICLVTTNFQTKSMSSMVSDTSCTFPSGDGIFWKHWIQTKDGQCGSPLVSTRDGFIVGIHSASNFTNTNNYFTSVPKNFMELLTNQEAQQWVSGWRLNADSVLWGGHKVFMVKPEEPFQPVKEATQL

Variants of: B1
Test: raw area under fraction-flipped curve 0-4 h after induction (AUC4h, not background-subtracted), DNA-recorder readout of cleavage of the substrate (dimensionless); higher = more cleavage of the substrate by the protease variant
Details: temperature: 34 °C; time window: 0-4 h after rhamnose induction
Procedure: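 In vivo DNA recorder in E. coli TOP10(DE3) ΔrhaA at 34 °C. Each TEVp single-site mutant (parent TEVp 0) is paired with a single-site variant of the 7-mer TEVs (canonical ENLYFQ|S). The substrate sits between flexible linkers in a Bxb1-sfGFP-TEVs-SsrA fusion, so cleavage stabilises Bxb1 and speeds flipping of a recombination array, read by NGS. The value is the raw area under the fraction-flipped curve over 0-4 h after rhamnose induction (AUC4h), with ≥20 reads per time point. It is not background-subtracted; inactive controls average about 0.047.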
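Also: Bxb1 expression induced with 0.2% (w/v) L-rhamnose at OD600 near 0.5, cultures sampled hourly, flipped fraction per protease–substrate barcode pair counted by paired-end Illumina sequencing.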

Row | Variant | area with substrate ENAYFQS | area with substrate ENCYFQS | area with substrate ENDYFQS | area with substrate ENEYFQS | area with substrate ENFYFQS | area with substrate ENGYFQS | area with substrate ENHYFQS | area with substrate ENIYFQS | area with substrate ENKYFQS | area with substrate ENNYFQS | area with substrate ENPYFQS | area with substrate ENQYFQS | area with substrate ENRYFQS | area with substrate ENSYFQS | area with substrate ENTYFQS | area with substrate ENVYFQS | area with substrate ENWYFQS | area with substrate ENMYFQS | area with substrate ENYYFQS
1 | F49M | 0.0624 | 0.0647 | 0.0606 | 0.0594 | 0.0627 | 0.0561 | 0.0531 | 0.0658 | 0.0692 | 0.0787 | 0.0538 | 0.0552 | 0.0596 | 0.0603 | 0.0549 | 0.0553 | 0.0406 | – | –
2 | R50K | 0.0766 | 0.0939 | 0.06 | 0.0617 | 0.0702 | – | – | 0.0881 | 0.0579 | 0.0735 | – | 0.0645 | 0.0479 | 0.0558 | 0.065 | – | 0.0064 | 0.0594 | 0.0665
3 | R50H | 0.0677 | 0.066 | 0.0812 | 0.0609 | 0.0541 | 0.0597 | 0.0368 | – | – | 0.0523 | – | – | 0.0649 | 0.0683 | 0.0549 | 0.0833 | 0.0069 | – | 0.0613
4 | R50P | 0.0571 | 0.0665 | 0.063 | 0.0643 | 0.0393 | 0.0585 | – | 0.0987 | 0.0597 | 0.0588 | 0.0495 | 0.0574 | 0.0616 | 0.0591 | 0.0631 | 0.0662 | – | – | 0.0538
5 | M88A | 0.0528 | 0.0696 | 0.0648 | 0.0552 | 0.0638 | 0.0478 | 0.0623 | – | – | – | – | – | – | 0.056 | 0.057 | 0.0789 | – | 0.0824 | –
6 | D69E | 0.0674 | 0.0551 | 0.0714 | 0.0958 | 0.0662 | 0.0585 | – | – | 0.0613 | 0.0538 | 0.0518 | 0.063 | 0.0604 | 0.0588 | 0.0556 | 0.0907 | – | 0.0615 | 0.0567
7 | S60K | 0.0576 | 0.0662 | 0.0596 | 0.059 | 0.074 | 0.0575 | 0.0524 | 0.0846 | – | – | 0.0648 | 0.0768 | 0.0842 | 0.048 | 0.0583 | 0.0647 | 0.0424 | – | 0.0728
8 | P104G | 0.0463 | 0.0543 | 0.0427 | 0.0456 | 0.0558 | 0.0634 | 0.0562 | – | 0.0607 | 0.0395 | 0.0481 | – | 0.0517 | 0.0516 | 0.0438 | 0.0514 | 0.0417 | 0.0497 | 0.0738
9 | Q59I | 0.0533 | 0.0712 | 0.0541 | – | 0.0814 | 0.0637 | – | – | – | 0.0332 | 0.0597 | 0.0569 | 0.0603 | 0.0498 | – | 0.0677 | – | 0.063 | –
10 | R102H | 0.0387 | 0.0575 | 0.0434 | 0.056 | 0.0459 | 0.0196 | 0.0544 | 0.054 | 0.0629 | 0.0529 | 0.047 | 0.0483 | 0.0503 | 0.0557 | – | 0.0477 | 0.0643 | 0.0458 | 0.0516
11 | K90W | 0.0513 | 0.0745 | – | 0.0597 | 0.0402 | 0.0725 | 0.0678 | 0.143 | 0.0697 | 0.0645 | – | 0.0545 | – | 0.0625 | 0.0566 | 0.0847 | 0.039 | – | 0.057
12 | I84E | 0.0499 | 0.0552 | 0.06 | 0.061 | 0.0463 | 0.0513 | 0.0475 | 0.0645 | 0.054 | 0.0625 | 0.0531 | 0.0486 | 0.0563 | 0.0482 | 0.0428 | 0.0446 | 0.0498 | 0.0083 | 0.0617
13 | I86Q | 0.0456 | – | 0.034 | 0.0456 | 0.0355 | 0.0384 | 0.047 | 0.0437 | – | 0.0508 | 0.0365 | 0.044 | 0.042 | 0.0443 | 0.0385 | 0.0385 | 0.0339 | 0.0358 | –
14 | L77I | 0.0675 | 0.0648 | 0.0584 | 0.0691 | – | 0.0616 | 0.0738 | – | – | 0.062 | – | 0.0472 | 0.0495 | 0.0484 | 0.0492 | 0.0621 | 0.0533 | 0.0691 | 0.0651
15 | L77H | 0.0621 | 0.0605 | 0.0782 | 0.0639 | 0.0582 | 0.0578 | 0.0586 | 0.0672 | 0.0511 | 0.0563 | 0.0619 | 0.0645 | 0.0651 | 0.0592 | 0.0545 | – | – | 0.0459 | –
16 | L73I | 0.0453 | 0.0852 | 0.0624 | – | – | 0.0728 | 0.0435 | 0.103 | – | – | – | 0.0688 | – | 0.0672 | – | 0.0759 | 0.0567 | – | 0.0606
17 | T55S | 0.0584 | 0.0697 | 0.0731 | 0.118 | 0.0653 | – | – | – | 0.0434 | 0.0578 | 0.0604 | 0.0581 | 0.0437 | 0.0479 | 0.0719 | 0.0566 | – | – | 0.0442
18 | T71E | 0.0626 | 0.0604 | 0.0601 | 0.0489 | – | 0.0702 | 0.0501 | 0.0883 | 0.0805 | 0.0595 | – | 0.111 | 0.0723 | 0.0667 | – | 0.0863 | – | – | 0.0787
19 | N53C | 0.0381 | 0.0577 | – | 0.0588 | 0.0605 | 0.0517 | 0.0811 | 0.148 | 0.0612 | – | 0.0635 | 0.0669 | 0.059 | 0.0662 | – | 0.0711 | 0.0674 | – | –
20 | N53M | 0.0561 | 0.061 | 0.0528 | 0.0622 | 0.0551 | – | – | 0.0696 | 0.0467 | – | – | 0.0657 | 0.0794 | 0.0643 | 0.048 | – | 0.141 | 0.0628 | –
21 | N53V | 0.0487 | 0.0588 | 0.0533 | 0.0555 | – | – | – | – | – | – | 0.0616 | 0.0607 | 0.0555 | 0.0521 | 0.0629 | 0.0543 | 0.0548 | 0.0705 | –
22 | N53S | 0.053 | 0.0639 | 0.0669 | 0.0674 | 0.0447 | – | 0.0557 | 0.109 | 0.0564 | 0.0536 | 0.0427 | 0.0473 | 0.0466 | 0.0525 | 0.0739 | 0.0741 | 0.0644 | – | –
23 | Q105D | 0.0663 | 0.0669 | 0.0635 | 0.0608 | 0.0525 | 0.0557 | 0.071 | 0.112 | 0.0603 | 0.0551 | 0.0491 | 0.0574 | 0.0736 | 0.0653 | 0.0652 | 0.0687 | – | – | 0.064
24 | I85R | 0.0826 | – | 0.0527 | – | 0.0425 | 0.0568 | 0.0547 | – | 0.043 | 0.0529 | 0.0575 | 0.0537 | – | 0.0503 | – | – | – | 0.0754 | 0.06

Source: the supplement of paper PMC12217912
